Measurements taken from patent US20260166128A1, “HUMAN AMYLIN ANALOG, AND DERIVATIVE THEREOF AND USE THEREOF” (priority 2022, published 2026).
At least one peptide structure holds a part that was inferred or is arguable (an end, a ring closure or a residue). Numbered stars: 1 amine (or outer) side, 2 acyl side, 3 side chain; on linkers, the order of the positions; unused ones are H or OH. Bridge positions count the residues as written; N and C are the ends. Square brackets hold non-standard residues; d marks the D form. Side chains are listed from the residue outwards. Peptide text beside a SMILES is read from it. * marks the point of attachment. C20 diacid = O=C(O)CCCCCCCCCCCCCCCCCCC(=O)*; C18 diacid = O=C(O)CCCCCCCCCCCCCCCCC(=O)*; γGlu = O=C(O)[C@H](CCC(=O)[*:2])N[*:1]; Hyp = O=C(O)[C@@H]1C[C@@H](O)CN1; AEEA = NCCOCCOCC(=O)O

Assay: Freeze-thaw stability of derivatives (freeze-thaw yield by liquid chromatography)
Format: physicochemical
Details: for Dissolution property: appearance after dissolution at 0.2 mg/ml in 20 mM phosphate buffer solution (PB) (pH 7.0); for Freeze storage property: appearance after overnight storage at −20° C. and thawing to room temperature, 0.2 mg/ml in 20 mM PB (pH 7.0); for Freeze storage yield: concentration of polypeptide after freezing and thawing / concentration before, by liquid chromatography, −20° C. overnight
Method in brief: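 Lyophilised peptide derivative dissolved at 0.2 mg/ml in 20 mM phosphate buffer, pH 7.0, frozen overnight at −20° C, then thawed at room temperature. Peptide concentration before and after freeze-thaw measured by reversed-phase HPLC on centrifuged supernatant; yield = post-thaw/pre-thaw concentration.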

## CC[C@H](C)[C@H](NC(=O)[C@@H]1CCCN1C(=O)[C@H](CCCCNC(=O)CC[C@H](NC(=O)CCCCCCCCCCCCCCCCCCC(=O)O)C(=O)O)NC(=O)[C@H](CC(C)C)NC(=O)[C@H](CC(N)=O)NC(=O)[C@H](CC(N)=O)NC(=O)[C@H](CO)NC(=O)[C@H](CO)NC(=O)[C@H](Cc1c[nH]cn1)NC(=O)[C@H](CCCNC(=N)N)NC(=O)[C@H](CC(C)C)NC(=O)[C@H](Cc1ccccc1)NC(=O)[C@H](CC(=O)O)NC(=O)[C@H](C)NC(=O)[C@H](CC(C)C)NC(=O)[C@H](CCCNC(=N)N)NC(=O)[C@H](CCC(N)=O)NC(=O)[C@@H](NC(=O)[C@H](C)NC(=O)[C@@H]1CSSC[C@H](NC(=O)[C@@H](N)CC(=O)O)C(=O)N[C@@H](CC(N)=O)C(=O)N[C@@H]([C@@H](C)O)C(=O)N[C@@H](C)C(=O)N[C@@H]([C@@H](C)O)C(=O)N1)[C@@H](C)O)C(=O)N[C@@H](CC(C)C)C(=O)N1CCC[C@H]1C(=O)N1CCC[C@H]1C(=O)N[C@H](C(=O)N[C@@H](CC(N)=O)C(=O)N[C@H](C(=O)NCC(=O)N[C@@H](CO)C(=O)N[C@@H](CC(N)=O)C(=O)N[C@H](C(=O)N1C[C@H](O)C[C@H]1C(N)=O)[C@@H](C)O)C(C)C)[C@@H](C)O [PD079] (H-DCNTATCATQRLADFLRHSSNNLK([γGlu-C20 diacid])PILPPTNVGSNT[Hyp]-NH2; disulfide 2-7)
  Dissolution property: Clear
  Freeze storage property: Clear
  Freeze storage yield: 96.15%

## CC[C@H](C)[C@H](NC(=O)[C@@H]1CCCN1C(=O)[C@H](CCCCNC(=O)CC[C@H](NC(=O)CCCCCCCCCCCCCCCCCCC(=O)O)C(=O)O)NC(=O)[C@H](CC(C)C)NC(=O)[C@H](CC(N)=O)NC(=O)[C@H](CC(N)=O)NC(=O)[C@H](CO)NC(=O)[C@H](CO)NC(=O)[C@H](Cc1c[nH]cn1)NC(=O)[C@H](CCCNC(=N)N)NC(=O)[C@H](CC(C)C)NC(=O)[C@H](Cc1ccccc1)NC(=O)[C@H](CC(=O)O)NC(=O)[C@H](C)NC(=O)[C@H](CC(C)C)NC(=O)[C@H](CCCNC(=N)N)NC(=O)[C@H](CCC(N)=O)NC(=O)[C@@H](NC(=O)[C@H](C)NC(=O)[C@@H]1CSSC[C@H](NC(=O)[C@@H](N)CCC(=O)O)C(=O)N[C@@H](CC(N)=O)C(=O)N[C@@H]([C@@H](C)O)C(=O)N[C@@H](C)C(=O)N[C@@H]([C@@H](C)O)C(=O)N1)[C@@H](C)O)C(=O)N[C@@H](CC(C)C)C(=O)N1CCC[C@H]1C(=O)N1CCC[C@H]1C(=O)N[C@H](C(=O)N[C@@H](CC(N)=O)C(=O)N[C@H](C(=O)NCC(=O)N[C@@H](CO)C(=O)N[C@@H](CC(N)=O)C(=O)N[C@H](C(=O)N1C[C@H](O)C[C@H]1C(N)=O)[C@@H](C)O)C(C)C)[C@@H](C)O [PD080] (H-ECNTATCATQRLADFLRHSSNNLK([γGlu-C20 diacid])PILPPTNVGSNT[Hyp]-NH2; disulfide 2-7)
  Dissolution property: Clear
  Freeze storage property: Clear
  Freeze storage yield: 90.06%

## CC[C@H](C)[C@H](NC(=O)[C@@H]1CCCN1C(=O)[C@H](CCCCNC(=O)COCCOCCNC(=O)COCCOCCNC(=O)CC[C@H](NC(=O)CCCCCCCCCCCCCCCCCCC(=O)O)C(=O)O)NC(=O)[C@H](CC(C)C)NC(=O)[C@H](CC(N)=O)NC(=O)[C@H](CC(N)=O)NC(=O)[C@H](CO)NC(=O)[C@H](CO)NC(=O)[C@H](Cc1c[nH]cn1)NC(=O)[C@H](CCCNC(=N)N)NC(=O)[C@H](CC(C)C)NC(=O)[C@H](Cc1ccccc1)NC(=O)[C@H](CC(=O)O)NC(=O)[C@H](C)NC(=O)[C@H](CC(C)C)NC(=O)[C@H](CCCNC(=N)N)NC(=O)[C@H](CCC(N)=O)NC(=O)[C@@H](NC(=O)[C@H](C)NC(=O)[C@@H]1CSSC[C@H](NC(=O)[C@@H](N)CCCNC(=N)N)C(=O)N[C@@H](CC(N)=O)C(=O)N[C@@H]([C@@H](C)O)C(=O)N[C@@H](C)C(=O)N[C@@H]([C@@H](C)O)C(=O)N1)[C@@H](C)O)C(=O)N[C@@H](CC(C)C)C(=O)N1CCC[C@H]1C(=O)N1CCC[C@H]1C(=O)N[C@H](C(=O)N[C@@H](CC(N)=O)C(=O)N[C@H](C(=O)NCC(=O)N[C@@H](CO)C(=O)N[C@@H](CC(N)=O)C(=O)N[C@H](C(=O)N1C[C@H](O)C[C@H]1C(N)=O)[C@@H](C)O)C(C)C)[C@@H](C)O [PD081] (H-RCNTATCATQRLADFLRHSSNNLK([AEEA-AEEA-γGlu-C20 diacid])PILPPTNVGSNT[Hyp]-NH2; disulfide 2-7)
  Dissolution property: Clear
  Freeze storage property: Clear
  Freeze storage yield: 76.82%

## CC[C@H](C)[C@H](NC(=O)[C@@H]1CCCN1C(=O)CNC(=O)[C@H](CCCCNC(=O)COCCOCCNC(=O)COCCOCCNC(=O)CC[C@H](NC(=O)CCCCCCCCCCCCCCCCCCC(=O)O)C(=O)O)NC(=O)[C@H](CC(N)=O)NC(=O)[C@H](CC(N)=O)NC(=O)[C@H](CO)NC(=O)[C@H](CO)NC(=O)[C@H](Cc1c[nH]cn1)NC(=O)[C@H](CCCNC(=N)N)NC(=O)[C@H](CC(C)C)NC(=O)[C@H](Cc1ccccc1)NC(=O)[C@H](CC(=O)O)NC(=O)[C@H](C)NC(=O)[C@H](CC(C)C)NC(=O)[C@H](CCCNC(=N)N)NC(=O)[C@H](CCC(N)=O)NC(=O)[C@@H](NC(=O)[C@H](C)NC(=O)[C@@H]1CSSC[C@H](NC(=O)[C@@H](N)CCCNC(=N)N)C(=O)N[C@@H](CC(N)=O)C(=O)N[C@@H]([C@@H](C)O)C(=O)N[C@@H](C)C(=O)N[C@@H]([C@@H](C)O)C(=O)N1)[C@@H](C)O)C(=O)N[C@@H](CC(C)C)C(=O)N1CCC[C@H]1C(=O)N1CCC[C@H]1C(=O)N[C@H](C(=O)N[C@@H](CC(N)=O)C(=O)N[C@H](C(=O)NCC(=O)N[C@@H](CO)C(=O)N[C@@H](CC(N)=O)C(=O)N[C@H](C(=O)N1C[C@H](O)C[C@H]1C(N)=O)[C@@H](C)O)C(C)C)[C@@H](C)O [PD083] (H-RCNTATCATQRLADFLRHSSNNK([AEEA-AEEA-γGlu-C20 diacid])GPILPPTNVGSNT[Hyp]-NH2; disulfide 2-7)
  Dissolution property: Clear
  Freeze storage property: Clear
  Freeze storage yield: 79.98%

## CC[C@H](C)[C@H](NC(=O)[C@@H]1CCCN1C(=O)CNC(=O)[C@H](CCCCNC(=O)COCCOCCNC(=O)COCCOCCNC(=O)CC[C@H](NC(=O)CCCCCCCCCCCCCCCCC(=O)O)C(=O)O)NC(=O)[C@H](CC(N)=O)NC(=O)[C@H](CC(N)=O)NC(=O)[C@H](CO)NC(=O)[C@H](CO)NC(=O)[C@H](Cc1c[nH]cn1)NC(=O)[C@H](CCCNC(=N)N)NC(=O)[C@H](CC(C)C)NC(=O)[C@H](Cc1ccccc1)NC(=O)[C@H](CC(=O)O)NC(=O)[C@H](C)NC(=O)[C@H](CC(C)C)NC(=O)[C@H](CCCNC(=N)N)NC(=O)[C@H](CCC(N)=O)NC(=O)[C@@H](NC(=O)[C@H](C)NC(=O)[C@@H]1CSSC[C@H](NC(=O)[C@@H](N)CCCNC(=N)N)C(=O)N[C@@H](CC(N)=O)C(=O)N[C@@H]([C@@H](C)O)C(=O)N[C@@H](C)C(=O)N[C@@H]([C@@H](C)O)C(=O)N1)[C@@H](C)O)C(=O)N[C@@H](CC(C)C)C(=O)N1CCC[C@H]1C(=O)N1CCC[C@H]1C(=O)N[C@H](C(=O)N[C@@H](CC(N)=O)C(=O)N[C@H](C(=O)NCC(=O)N[C@@H](CO)C(=O)N[C@@H](CC(N)=O)C(=O)N[C@H](C(=O)N1C[C@H](O)C[C@H]1C(N)=O)[C@@H](C)O)C(C)C)[C@@H](C)O [PD085] (H-RCNTATCATQRLADFLRHSSNNK([AEEA-AEEA-γGlu-C18 diacid])GPILPPTNVGSNT[Hyp]-NH2; disulfide 2-7)
  Dissolution property: Clear
  Freeze storage property: Clear
  Freeze storage yield: 76.70%

## CC[C@H](C)[C@H](NC(=O)[C@@H]1CCCN1C(=O)CNC(=O)[C@H](CC(C)C)NC(=O)[C@H](CCCCNC(=O)CC[C@H](NC(=O)CCCCCCCCCCCCCCCCCCC(=O)O)C(=O)O)NC(=O)[C@H](CC(N)=O)NC(=O)[C@H](CO)NC(=O)[C@H](CO)NC(=O)[C@H](Cc1c[nH]cn1)NC(=O)[C@H](CCCNC(=N)N)NC(=O)[C@H](CC(C)C)NC(=O)[C@H](Cc1ccccc1)NC(=O)[C@H](CC(=O)O)NC(=O)[C@H](C)NC(=O)[C@H](CC(C)C)NC(=O)[C@H](CCCNC(=N)N)NC(=O)[C@H](CCC(N)=O)NC(=O)[C@@H](NC(=O)[C@H](C)NC(=O)[C@@H]1CSSC[C@H](NC(=O)[C@@H](N)CCCNC(=N)N)C(=O)N[C@@H](CC(N)=O)C(=O)N[C@@H]([C@@H](C)O)C(=O)N[C@@H](C)C(=O)N[C@@H]([C@@H](C)O)C(=O)N1)[C@@H](C)O)C(=O)N[C@@H](CC(C)C)C(=O)N1CCC[C@H]1C(=O)N1CCC[C@H]1C(=O)N[C@H](C(=O)N[C@@H](CC(N)=O)C(=O)N[C@H](C(=O)NCC(=O)N[C@@H](CO)C(=O)N[C@@H](CC(N)=O)C(=O)N[C@H](C(=O)N1C[C@H](O)C[C@H]1C(N)=O)[C@@H](C)O)C(C)C)[C@@H](C)O [PD086] (H-RCNTATCATQRLADFLRHSSNK([γGlu-C20 diacid])LGPILPPTNVGSNT[Hyp]-NH2; disulfide 2-7)
  Dissolution property: Clear
  Freeze storage property: Clear
  Freeze storage yield: 69.09%

## CC[C@H](C)[C@H](NC(=O)[C@@H]1CCCN1C(=O)CNC(=O)[C@H](CC(C)C)NC(=O)[C@H](CCCCNC(=O)COCCOCCNC(=O)COCCOCCNC(=O)CC[C@H](NC(=O)CCCCCCCCCCCCCCCCC(=O)O)C(=O)O)NC(=O)[C@H](CC(N)=O)NC(=O)[C@H](CO)NC(=O)[C@H](CO)NC(=O)[C@H](Cc1c[nH]cn1)NC(=O)[C@H](CCCNC(=N)N)NC(=O)[C@H](CC(C)C)NC(=O)[C@H](Cc1ccccc1)NC(=O)[C@H](CC(=O)O)NC(=O)[C@H](C)NC(=O)[C@H](CC(C)C)NC(=O)[C@H](CCCNC(=N)N)NC(=O)[C@H](CCC(N)=O)NC(=O)[C@@H](NC(=O)[C@H](C)NC(=O)[C@@H]1CSSC[C@H](NC(=O)[C@@H](N)CCCNC(=N)N)C(=O)N[C@@H](CC(N)=O)C(=O)N[C@@H]([C@@H](C)O)C(=O)N[C@@H](C)C(=O)N[C@@H]([C@@H](C)O)C(=O)N1)[C@@H](C)O)C(=O)N[C@@H](CC(C)C)C(=O)N1CCC[C@H]1C(=O)N1CCC[C@H]1C(=O)N[C@H](C(=O)N[C@@H](CC(N)=O)C(=O)N[C@H](C(=O)NCC(=O)N[C@@H](CO)C(=O)N[C@@H](CC(N)=O)C(=O)N[C@H](C(=O)N1C[C@H](O)C[C@H]1C(N)=O)[C@@H](C)O)C(C)C)[C@@H](C)O [PD089] (H-RCNTATCATQRLADFLRHSSNK([AEEA-AEEA-γGlu-C18 diacid])LGPILPPTNVGSNT[Hyp]-NH2; disulfide 2-7)
  Dissolution property: Clear
  Freeze storage property: Clear
  Freeze storage yield: 101.91%
